Test results taken from the supplement of paper PMC4604168 (melanoma cell lines).
The list shows a part of the results. Repeats are few or missing, and single values can be far off.

Columns and labels:
Assay in all cases: cell count relative to DMSO control; melanoma cells; higher = more viable cells
Conditions in all cases: library dose: low library concentration; 72 h
WM115 = tested on: WM115
WM1716 = tested on: WM1716
WM1745 = tested on: WM1745
WM3526 = tested on: WM3526
WM3619 = tested on: WM3619
WM451Lu = tested on: WM451Lu
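Further: cell number obtained by counting DAPI-stained nuclei in high-throughput microscope images with image analysis software, screen run in 1,536-well plates.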

Nc1ncn([C@H]2C[C@H](O)[C@@H](CO)O2)c(=O)n1 [decitabine] + CN(C)S(=O)(=O)c1ccc2c(c1)/C(=C/c1cc3c([nH]1)CCCC3)C(=O)N2 [SU6656] (first compound 0.1 µM, partner dose 0.4 µM)
cell count (WM115): 69.7% | cell count (WM1716): 85.5% | cell count (WM1745): 82.3% | cell count (WM3526): 80.6% | cell count (WM3619): 82.2% | cell count (WM451Lu): 92.2%

CC(=O)O[C@@]12CO[C@@H]1C[C@H](O)[C@@]1(C)C(=O)[C@H](O)C3=C(C)[C@@H](OC(=O)[C@H](O)[C@@H](NC(=O)OC(C)(C)C)c4ccccc4)C[C@@](O)([C@@H](OC(=O)c4ccccc4)[C@H]21)C3(C)C [Docetaxel] + C=C(c1ccc(C(=O)O)cc1)c1cc2c(cc1C)C(C)(C)CCC2(C)C [Bexarotene] (first compound 0.0001 µM, partner dose 2 µM)
cell count (WM115): 55% | cell count (WM1716): 27.1% | cell count (WM1745): 47% | cell count (WM3526): 36.6% | cell count (WM3619): 87.6% | cell count (WM451Lu): 55.3%

CC(=O)O[C@@]12CO[C@@H]1C[C@H](O)[C@@]1(C)C(=O)[C@H](O)C3=C(C)[C@@H](OC(=O)[C@H](O)[C@@H](NC(=O)OC(C)(C)C)c4ccccc4)C[C@@](O)([C@@H](OC(=O)c4ccccc4)[C@H]21)C3(C)C [Docetaxel] + CO[C@@H]1[C@H](N(C)C(=O)c2ccccc2)C[C@H]2O[C@]1(C)n1c3ccccc3c3c4c(c5c6ccccc6n2c5c31)C(=O)NC4 [Midostaurin] (first compound 0.0001 µM, partner dose 0.08 µM)
cell count (WM115): 45.2% | cell count (WM1716): 23.3% | cell count (WM1745): 33.2% | cell count (WM3526): 31.5% | cell count (WM3619): 64.1% | cell count (WM451Lu): 51.2%

Nc1ccn([C@@H]2O[C@H](CO)[C@@H](O)C2(F)F)c(=O)n1 [gemcitabine] + O=C(Nc1cccc(Cl)c1)Nc1ncc(CCNc2ncnc3ccsc23)s1 [SNS314] (first compound 0.0004 µM, partner dose 0.0008 µM)
cell count (WM115): 77.6% | cell count (WM1716): 114% | cell count (WM1745): 53% | cell count (WM3526): 84% | cell count (WM3619): 82.6% | cell count (WM451Lu): 91.6%

CC(=O)O[C@@]12CO[C@@H]1C[C@H](O)[C@@]1(C)C(=O)[C@H](O)C3=C(C)[C@@H](OC(=O)[C@H](O)[C@@H](NC(=O)OC(C)(C)C)c4ccccc4)C[C@@](O)([C@@H](OC(=O)c4ccccc4)[C@H]21)C3(C)C [Docetaxel] + O=C(Nc1ccccc1)c1cc([N+](=O)[O-])ccc1Cl [GW9662] (first compound 0.0001 µM, partner dose 2 µM)
cell count (WM115): 61.8% | cell count (WM1716): 42.3% | cell count (WM1745): 55.2% | cell count (WM3526): 45.4% | cell count (WM3619): 53.7% | cell count (WM451Lu): 50.6%

Nc1nc(F)nc2c1ncn2[C@@H]1O[C@H](CO)[C@@H](O)[C@@H]1O [fludarabine] + CN(C)S(=O)(=O)c1ccc2c(c1)/C(=C/c1cc3c([nH]1)CCCC3)C(=O)N2 [SU6656] (first compound 0.2 µM, partner dose 0.4 µM)
cell count (WM115): 77.5% | cell count (WM1716): 102% | cell count (WM1745): 98.3% | cell count (WM3526): 27% | cell count (WM3619): 95.4% | cell count (WM451Lu): 65.4%

Nc1ccn([C@@H]2O[C@H](CO)[C@@H](O)C2(F)F)c(=O)n1 [gemcitabine] + COc1cc(Nc2ncc(F)c(Nc3ccc4c(n3)NC(=O)C(C)(C)O4)n2)cc(OC)c1OC [Tamatinib] (first compound 0.0004 µM, partner dose 0.4 µM)
cell count (WM115): 85% | cell count (WM1716): 103% | cell count (WM1745): 59.5% | cell count (WM3526): 82.6% | cell count (WM3619): 91.7% | cell count (WM451Lu): 99%

CC(=O)c1c(C)c2cnc(Nc3ccc(N4CCNCC4)cn3)nc2n(C2CCCC2)c1=O [palbociclib] + COc1cc2ncnc(Nc3ccc(Oc4ccccc4)cc3)c2cc1OC [SrcI1] (first compound 0.04 µM, partner dose 2 µM)
cell count (WM115): 69.3% | cell count (WM1716): 56.9% | cell count (WM1745): 65.3% | cell count (WM3526): 63.8% | cell count (WM3619): 69.7% | cell count (WM451Lu): 62.4%

Nc1ccn([C@@H]2O[C@H](CO)[C@@H](O)C2(F)F)c(=O)n1 [gemcitabine] + OCCn1cc(-c2cnc3nnn(Cc4ccc5ncccc5c4)c3n2)cn1 [PF04217903] (first compound 0.0004 µM, partner dose 1 µM)
cell count (WM115): 86.9% | cell count (WM1716): 90% | cell count (WM1745): 52.4% | cell count (WM3526): 81.2% | cell count (WM3619): 65.7% | cell count (WM451Lu): 76%

CC(=O)O[C@@]12CO[C@@H]1C[C@H](O)[C@@]1(C)C(=O)[C@H](O)C3=C(C)[C@@H](OC(=O)[C@H](O)[C@@H](NC(=O)OC(C)(C)C)c4ccccc4)C[C@@](O)([C@@H](OC(=O)c4ccccc4)[C@H]21)C3(C)C [Docetaxel] + Oc1cc(-c2nc(-c3ccccc3)[nH]c2-c2ccncc2)ccc1Cl [L779450] (first compound 0.0001 µM, partner dose 0.2 µM)
cell count (WM115): 52.3% | cell count (WM1716): 29% | cell count (WM1745): 41% | cell count (WM3526): 36.1% | cell count (WM3619): 65.4% | cell count (WM451Lu): 48.9%

CO[C@H]1C[C@@H]2CC[C@@H](C)[C@@](O)(O2)C(=O)C(=O)N2CCCC[C@H]2C(=O)O[C@H]([C@H](C)C[C@@H]2CC[C@@H](OCCO)[C@H](OC)C2)CC(=O)[C@H](C)/C=C(\C)[C@@H](O)[C@@H](OC)C(=O)[C@H](C)C[C@H](C)/C=C/C=C/C=C/1C [everolimus] + COc1cc2c(Oc3ccc4[nH]c(C)cc4c3F)ncnc2cc1OCCCN1CCCC1 [cediranib] (first compound 0.02 µM, partner dose 0.4 µM)
cell count (WM115): 87% | cell count (WM1716): 76% | cell count (WM1745): 84.4% | cell count (WM3526): 65.4% | cell count (WM3619): 69.8% | cell count (WM451Lu): 87.6%

Nc1ncn([C@H]2C[C@H](O)[C@@H](CO)O2)c(=O)n1 [decitabine] + N#Cc1c(O)c2c(-c3ccc(-c4ccccc4O)cc3)csc2[nH]c1=O [A769662] (first compound 0.1 µM, partner dose 2 µM)
cell count (WM115): 90.2% | cell count (WM1716): 87.3% | cell count (WM1745): 91.7% | cell count (WM3526): 109% | cell count (WM3619): 90.4% | cell count (WM451Lu): 149%

CO[C@H]1C[C@@H]2CC[C@@H](C)[C@@](O)(O2)C(=O)C(=O)N2CCCC[C@H]2C(=O)O[C@H]([C@H](C)C[C@@H]2CC[C@@H](OCCO)[C@H](OC)C2)CC(=O)[C@H](C)/C=C(\C)[C@@H](O)[C@@H](OC)C(=O)[C@H](C)C[C@H](C)/C=C/C=C/C=C/1C [everolimus] + CO[C@@H]1[C@H](N(C)C(=O)c2ccccc2)C[C@H]2O[C@]1(C)n1c3ccccc3c3c4c(c5c6ccccc6n2c5c31)C(=O)NC4 [Midostaurin] (first compound 0.02 µM, partner dose 0.08 µM)
cell count (WM115): 70.9% | cell count (WM1716): 62.8% | cell count (WM1745): 86.8% | cell count (WM3526): 84.2% | cell count (WM3619): 83.4% | cell count (WM451Lu): 65.4%

CC(=O)O[C@@]12CO[C@@H]1C[C@H](O)[C@@]1(C)C(=O)[C@H](O)C3=C(C)[C@@H](OC(=O)[C@H](O)[C@@H](NC(=O)OC(C)(C)C)c4ccccc4)C[C@@](O)([C@@H](OC(=O)c4ccccc4)[C@H]21)C3(C)C [Docetaxel] + Cc1cc([N+](=O)[O-])ccc1NS(=O)(=O)c1cc(Cl)ccc1Cl [FH535] (first compound 0.0001 µM, partner dose 1 µM)
cell count (WM115): 59.9% | cell count (WM1716): 36.2% | cell count (WM1745): 60.4% | cell count (WM3526): 45.3% | cell count (WM3619): 61.9% | cell count (WM451Lu): 57.1%

CC(=O)O[C@@]12CO[C@@H]1C[C@H](O)[C@@]1(C)C(=O)[C@H](O)C3=C(C)[C@@H](OC(=O)[C@H](O)[C@@H](NC(=O)OC(C)(C)C)c4ccccc4)C[C@@](O)([C@@H](OC(=O)c4ccccc4)[C@H]21)C3(C)C [Docetaxel] + NC(=O)Nc1cc(-c2cccc(F)c2)sc1C(=O)N[C@H]1CCCNC1 [AZD7762] (first compound 0.0001 µM, partner dose 0.02 µM)
cell count (WM115): 56.2% | cell count (WM1716): 30.2% | cell count (WM1745): 59.5% | cell count (WM3526): 42.5% | cell count (WM3619): 35.5% | cell count (WM451Lu): 65.1%

Nc1ccn([C@@H]2O[C@H](CO)[C@@H](O)C2(F)F)c(=O)n1 [gemcitabine] + CC1(C)NC(=O)N(c2ccc([N+](=O)[O-])c(C(F)(F)F)c2)C1=O [nilutamide] (first compound 0.0004 µM, partner dose 1 µM)
cell count (WM115): 93.9% | cell count (WM1716): 102% | cell count (WM1745): 79.1% | cell count (WM3526): 115% | cell count (WM3619): 77.8% | cell count (WM451Lu): 108%

CC(=O)O[C@@]12CO[C@@H]1C[C@H](O)[C@@]1(C)C(=O)[C@H](O)C3=C(C)[C@@H](OC(=O)[C@H](O)[C@@H](NC(=O)OC(C)(C)C)c4ccccc4)C[C@@](O)([C@@H](OC(=O)c4ccccc4)[C@H]21)C3(C)C [Docetaxel] + COCC[n+]1c2c(n(Cc3cnccn3)c1C)C(=O)c1ccccc1C2=O [YM155] (first compound 0.0001 µM, partner dose 0.0004 µM)
cell count (WM115): 62.6% | cell count (WM1716): 41% | cell count (WM1745): 49.3% | cell count (WM3526): 57.6% | cell count (WM3619): 70.4% | cell count (WM451Lu): 47.1%

CC(=O)c1c(C)c2cnc(Nc3ccc(N4CCNCC4)cn3)nc2n(C2CCCC2)c1=O [palbociclib] + COc1cc2c(Oc3ccc4[nH]c(C)cc4c3F)ncnc2cc1OCCCN1CCCC1 [cediranib] (first compound 0.04 µM, partner dose 0.4 µM)
cell count (WM115): 74.9% | cell count (WM1716): 64% | cell count (WM1745): 63.4% | cell count (WM3526): 61.3% | cell count (WM3619): 86.3% | cell count (WM451Lu): 93.9%

CO[C@H]1C[C@@H]2CC[C@@H](C)[C@@](O)(O2)C(=O)C(=O)N2CCCC[C@H]2C(=O)O[C@H]([C@H](C)C[C@@H]2CC[C@@H](OCCO)[C@H](OC)C2)CC(=O)[C@H](C)/C=C(\C)[C@@H](O)[C@@H](OC)C(=O)[C@H](C)C[C@H](C)/C=C/C=C/C=C/1C [everolimus] + OCc1c[nH]c2ccccc12 [Indole-3-carbinol] (first compound 0.02 µM, partner dose 0.8 µM)
cell count (WM115): 73.8% | cell count (WM1716): 67.7% | cell count (WM1745): 86% | cell count (WM3526): 62.2% | cell count (WM3619): 53.3% | cell count (WM451Lu): 88.9%

Nc1nc(F)nc2c1ncn2[C@@H]1O[C@H](CO)[C@@H](O)[C@@H]1O [fludarabine] + OCCn1cc(-c2cnc3nnn(Cc4ccc5ncccc5c4)c3n2)cn1 [PF04217903] (first compound 0.2 µM, partner dose 1 µM)
cell count (WM115): 75.6% | cell count (WM1716): 72.2% | cell count (WM1745): 92.7% | cell count (WM3526): 34.7% | cell count (WM3619): 85.7% | cell count (WM451Lu): 62.7%

CC(=O)O[C@@]12CO[C@@H]1C[C@H](O)[C@@]1(C)C(=O)[C@H](O)C3=C(C)[C@@H](OC(=O)[C@H](O)[C@@H](NC(=O)OC(C)(C)C)c4ccccc4)C[C@@](O)([C@@H](OC(=O)c4ccccc4)[C@H]21)C3(C)C [Docetaxel] + Cn1c(Nc2ccc(C(F)(F)F)cc2)nc2cc(Oc3ccnc(-c4ncc(C(F)(F)F)[nH]4)c3)ccc21 [CHIR265] (first compound 0.0001 µM, partner dose 0.08 µM)
cell count (WM115): 25.9% | cell count (WM1716): 21.6% | cell count (WM1745): 39.6% | cell count (WM3526): 13.1% | cell count (WM3619): 57.5% | cell count (WM451Lu): 39%
